Source: PubChem BioAssay AID588855 (National Center for Advancing Translational Sciences (NCATS), 2011)
Among all 410,000 compounds or so, about 5,000 (1.2%) were called active. The inconclusive results got no clear call from the source; some entries with a clear call stand among them for comparison. Calls follow the shape of the dose curve; as a rule, active = well fitted inhibition curve with a large enough effect; inconclusive = small, poorly fitted or top-dose-only effect; inactive = no such curve, though single readings can be large or run the other way. Potencies beside an inconclusive call are fits to weak or partial responses and may not hold up.

Test: qHTS for Inhibitors of TGF-b; also: nearly all actives have a fitted effect of over 65% in size
Conditions: HepG2 CAGA-GFP TGF-b/SMAD3 reporter, GFP fluorescence, 18 h, TGF-beta stimulated, 500 pg/mL final; series mostly up to 46.1 µM
In short: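 HEPG2 CAGA-GFP cells (1000/well, DMEM with 1% FBS) were pre-incubated 2 h at 37 degrees C, given compound by pin tool, then stimulated with TGF-beta at 500 pg/mL final for 18 h before per-cell GFP fluorescence imaging.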
Potency is read from the fitted curve at half-maximal effect; tags tell the direction and shape of the fitted curve.

| Compound | Potency |
| --- | --- |
| Cc1cccc(/N=C/c2c(O)cc(C)oc2=O)n1 | inactive |
| CC(Nc1ncnc2c1cnn2-c1cccc(Cl)c1)c1ccccc1 (stereo not given) | inconclusive: 31.6 µM [inhibitor, single point] |
| CC(OC(=O)c1cccs1)C(=O)NCC1CCCO1 (stereo not given) | inconclusive: 1 µM [inhibitor, full curve, poor fit] |
| O=C(CSc1ccc(F)cc1)Nc1ccc(C2SCCS2)cc1 | inconclusive: 35.5 µM [inhibitor, single point] |
| CCN(CC)c1ccc(NC(=S)Nc2ccc(F)cc2)cc1 | inactive |
| Cc1ccc(S(=O)(=O)NCCC(=O)N2CCN(c3cccc(Cl)c3)CC2)cc1C | inconclusive: 15.8 µM [inhibitor, partial curve, poor fit] |
| COc1ccc(/C=C2\SC(=S)N(CCCC(=O)Nc3ccc(O)cc3)C2=O)cc1 | inconclusive: 25.1 µM [inhibitor, single point] |
| COc1c2c(cc(O)c1C(C)=O)OC(C)(C)C=C2 | inactive |
| COc1cc(Cl)c(C)cc1NC(=O)Cn1cnc2sc(C)c(S(=O)(=O)N3CCCCC3)c2c1=O | inconclusive: 25.1 µM [inhibitor, single point] |
| CCCn1c(SCC#N)nc2c(c1=O)C1(CCCC1)Cc1ccccc1-2 | inconclusive: 35.5 µM [inhibitor, single point] |
| COc1ccccc1/C=C/C=N/n1c(-c2ccc(Cl)cc2)n[nH]c1=S | inactive |
| Clc1ccc(Nc2ncnc3ccc(Br)cc23)cc1 | inconclusive: 35.5 µM [inhibitor, single point] |
| COCCNC(=O)/C(C#N)=C/c1c(N2CCN(c3ccccc3)CC2)nc2ccccn2c1=O | inactive |
| Cc1ccc(C2CC(=O)c3cnc(N4CCN(c5ccccc5)CC4)nc3C2)cc1 (stereo not given) | inactive |
| N=C1C(c2nc3ccccc3[nH]2)=C(O)CN1c1ccccc1 | inconclusive: 3.98 µM [inhibitor, full curve, poor fit] |
| Cc1ccc(OC(=S)Nc2ccccc2)c(C)c1 | inactive |
| CCOc1cc(/C=N\NC(=O)c2ccc(NC(=O)C(C)(C)C)cc2)ccc1OC(=O)c1ccc(C)cc1 | inactive |
| CC1(C)CN(c2ccc(Br)cc2)C(=O)[C@H]1CC(=O)Nc1ccccc1 | inconclusive: 20 µM [inhibitor, single point] |
| O=C(CSc1nc2cc(Cl)ccc2s1)N1CCCc2ccccc21 | inconclusive: 11.2 µM [inhibitor, partial curve] |
| CC(C)n1c(SCC(=O)NC2CC2)nnc1-c1ccco1 | inactive |
| c1ccc2[nH]c3cc4ncnc4cc3nc2c1 | inconclusive: 22.4 µM [inhibitor, single point] |
| CCOc1ncccc1C(=O)Nc1c(C)n(C)n(-c2ccccc2)c1=O | inactive |
| COc1cc(-c2ccc3oc(-c4ccsc4)cc(=O)c3c2)cc(OC)c1OC | inconclusive: 0.631 µM [inhibitor, full curve, poor fit] |
| Cc1ccc2c(c1)N(C(=O)CCC(=O)N1CCOCC1)CC(C)O2 (stereo not given) | inactive |

| Compound | Potency |
| --- | --- |
| CN(C#N)c1nc(N2CCOCC2)nc(N2CCOCC2)n1 | inactive |
| O=C(NCCCN1CCOCC1)c1ccccc1N1C(=O)[C@@H]2Cc3c([nH]c4ccccc34)C(c3cccc(Cl)c3)N2C1=O (stereo not given in full) | inactive |
| C#Cc1ccc2c(c1)COc1c3ccccc3nn1-2 | inconclusive: 11.2 µM [inhibitor, single point] |
| CC(C)NC(=S)N=Nc1c(O)[nH]c2ccc([N+](=O)[O-])cc12 | inconclusive: 20 µM [inhibitor, single point] |
| COc1ccc(CSCCNC(=S)Nc2ccccc2)cc1Cl | inconclusive: 25.1 µM [inhibitor, partial curve, poor fit] |
| CC(=O)N1CCN(c2ccc(NC(=O)c3ccc([N+](=O)[O-])cc3Cl)cc2)CC1 | inactive |
| COc1ccc(S(=O)(=O)NCC(c2cccnc2)N2CCN(c3ccccc3OC)CC2)cc1C (stereo not given) | inconclusive: 11.2 µM [inhibitor, single point] |
| O=[N+]([O-])c1cccc(Cl)c1N1CCOCC1 | inactive |
| CC(=O)Oc1ccccc1Cn1c(C)c(C(=O)NCc2ccc(Cl)c(Cl)c2)sc1=O | inconclusive: 15.8 µM [inhibitor, single point] |
| COc1ccc(S(=O)(=O)Nc2ccccc2C(=O)Nc2nc(-c3ccc(F)cc3)cs2)cc1OC | active: 7.08 µM |
| CCOC(=O)c1sc(C)c(C(=O)NC2CCCCC2)c1N | inconclusive: 12.6 µM [inhibitor, partial curve] |
| COc1ccc([N+](=O)[O-])cc1NC(=O)c1cn(-c2ccc(Cl)cc2)c(=O)c2ccccc12 | inactive |
| O=C1CN(CC(=O)N2CCCCC2)c2ccccc2O1 | inconclusive: 35.5 µM [inhibitor, single point] |
| CCOc1cccc(CN2CCCC(C(=O)c3cc(Cl)ccc3OC)C2)c1O (stereo not given) | inactive |
| O=C1N[C@@H](Cc2c[nH]c3ccccc23)COC(=O)[C@@H](Cc2ccc(F)cc2)CC/C=C/C[C@@H]1CC(=O)N(CCO)Cc1ccccc1 | active: 8.91 µM |
| O=C(/C=C/[C@H]1O[C@@H](n2ccc(=O)[nH]c2=O)[C@H](O)[C@@H]1O)NCCN1CCCCC1 | inactive |
| Cc1cccc2sc(N(CCCN(C)C)C(=O)c3ccc(S(=O)(=O)N4CCc5ccccc5C4)cc3)nc12 | inactive |
| O=C(CN1C(=O)COc2ccc(S(=O)(=O)N3CCOCC3)cc21)Nc1ccc(F)c(Cl)c1 | inconclusive: 10 µM [inhibitor, partial curve] |
| CCOC(=O)c1c(NC(=O)CN2C(=O)NC3(CCCCC3C)C2=O)sc(C)c1CC (stereo not given) | inconclusive: 22.4 µM [inhibitor, single point] |
| Cc1c(Cl)cccc1NC(=O)C1CCCN(C(=O)c2cnn(-c3ccccc3)c2-n2cccc2)C1 (stereo not given) | active: 12.6 µM |
| COc1cccc(CNC(=O)C2CCN(c3cnccn3)CC2)c1 | inconclusive: 5.62 µM [inhibitor, single point] |
| Cc1ccc(C)c(NCC(=O)c2ccc(Cl)cc2)c1 | inactive |
| O=C(COC(=O)C1CC2CCCC(C1)C2=O)NNC(=O)c1ccccc1Br (stereo not given) | inconclusive: 5.62 µM [inhibitor, single point] |
| CC(C)(C)c1ccccc1OCCCCCn1ccnc1 | inconclusive: 22.4 µM [inhibitor, single point] |

| Compound | Potency |
| --- | --- |
| CCOc1cc(NS(=O)(=O)c2ccc(Cl)cc2)c(OCC)cc1NC(=O)CC(C)C | inconclusive: 22.4 µM [inhibitor, partial curve, poor fit] |
| COc1ccc(S(=O)(=O)Nc2ccc(Oc3ncccn3)c(Cl)c2)cc1 | inconclusive: 35.5 µM [inhibitor, single point] |
| O=C(c1ccc2nc(Cc3cccc(Cl)c3)oc2c1)N1CCC(O)CC1 | inactive |
| COC(=O)C1=C[C@@H](C(=O)OC)[C@@H]2C3=C(C(=O)[C@@]2(C)NC(=O)c2ccccc2)[C@H](C)[C@@H]2C(=O)N(Cc4ccccc4)C(=O)[C@@H]2[C@@H]3C1 | inactive |
| Cc1nn(-c2ccccc2)c(C)c1/C=C/C(=O)OCC(=O)Nc1ncc(Cl)cc1Cl | inconclusive: 17.8 µM [inhibitor, partial curve, poor fit] |
| Cc1cccc(-n2[nH]c3c4c(ccc3c2=O)C(=O)c2ccccc2C4=O)c1 | inactive |
| CC1(CCc2ccccc2)NC(=O)N(CC(=O)Nc2ccccc2C#N)C1=O (stereo not given) | inconclusive: 0.708 µM [inhibitor, partial curve, poor fit] |
| C=CCn1c(Cn2nnc3ccccc32)nnc1SCC(=O)N/N=C/c1cc(Br)cc(OC)c1O | inconclusive: 35.5 µM [inhibitor, single point] |
| Cc1cc(C)nc(SCc2ccccc2C#N)n1 | inconclusive: 0.794 µM [inhibitor, full curve, poor fit] |
| Cc1ccsc1CN(Cc1ccco1)C(=O)c1ccc(Cl)cc1 | inconclusive: 0.355 µM [inhibitor, full curve, poor fit] |
| CC(=O)OCC(=O)[C@@]1(O)CC[C@H]2[C@@H]3CCC4=CC(=O)CC[C@]4(C)[C@H]3[C@@H](O)C[C@@]21C | inactive |
| Nc1cccc2cccnc12 | inactive |
| CCc1ccccc1OCC(=O)Nc1ccc2c(c1)OCCO2 | inconclusive: 35.5 µM [inhibitor, single point] |
| CCCc1ccc(C2=Nn3c(nnc3C(C)C)SC2)cc1 | inactive |
| CCOC(=O)c1cc(-c2ccc(OC)cc2)n(CCC(=O)NCc2ccccc2OC)c1C | inconclusive: 20 µM [inhibitor, partial curve, poor fit] |
| O=C(CSCc1ccc(F)cc1)N1CCc2c([nH]c3ccccc23)C1c1ccc(F)cc1 (stereo not given) | inconclusive: 10 µM [inhibitor, partial curve, poor fit] |
| O=C(c1ccccc1-c1nc(-c2ccccc2)no1)N1CCCC1 | inconclusive: 1.12 µM [inhibitor, full curve, poor fit] |
| COc1ccc(-c2cc3c(=O)n(CC(=O)Nc4ccc(Br)c(C)c4)ccn3n2)cc1OC | inactive |
| COc1ccc(-c2cn3cccnc3n2)cc1NC(=O)c1cccs1 | inconclusive: 5.01 µM [inhibitor, partial curve, poor fit] |
| CC(C)(C)c1ccc(-c2cn(-c3ccc(Br)cc3)c3[n+]2CCCS3)cc1 | active: 10 µM |
| CC(C)Oc1ccc(C2CC(=O)N(c3ccc(N(C)C)cc3)C2=O)cc1 (stereo not given) | inconclusive: 15.8 µM [inhibitor, single point] |
| N/C(=N\OC(=O)c1ccccc1)C(Cc1ccccc1)C(=O)NOC(=O)c1ccccc1 (stereo not given) | inconclusive: 35.5 µM [inhibitor, single point] |
